Results from US7235366B1 (priority 1993, dated 2007).
Counter-ions that a name gives are not always drawn.

biological target: mouse delta opioid receptor msl-2 (mORD1) (Mus musculus, UniProt P32300); experiment: biochemical
Sequence (P32300 whole entry): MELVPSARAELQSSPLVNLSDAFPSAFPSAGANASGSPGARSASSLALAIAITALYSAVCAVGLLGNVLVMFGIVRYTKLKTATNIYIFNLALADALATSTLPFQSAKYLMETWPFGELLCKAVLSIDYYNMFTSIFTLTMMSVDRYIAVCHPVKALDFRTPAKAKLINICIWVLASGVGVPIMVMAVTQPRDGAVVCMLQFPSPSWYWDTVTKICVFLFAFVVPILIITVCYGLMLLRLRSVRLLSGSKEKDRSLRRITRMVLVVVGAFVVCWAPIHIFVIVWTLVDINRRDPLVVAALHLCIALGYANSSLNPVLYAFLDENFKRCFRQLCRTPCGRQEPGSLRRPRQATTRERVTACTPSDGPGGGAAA

Row | Compound | IC50
1 | CN1CC[C@]23CCCC[C@H]2[C@H]1Cc1ccc(O)cc13 [Levorphanol] | 103 nM
2 | CCC12CCN(CC3(O)CC3)C(Cc3ccc(O)cc31)C2(C)C (racemic) [Bremazocine] | 19 nM
3 | CN1CC[C@@]23CCCC[C@@H]2[C@@H]1Cc1ccc(O)cc13 [Dextrorphan] | > 1000 nM
4 | CC[C@]12CCN(CC3CC3)[C@H](C(=O)c3ccc(O)cc31)[C@@H]2C [Ethylketocyclazocine] | 611 nM
5 | CCN(CC)CCOCCOC(=O)C1(c2ccccc2)CCCC1 [Carbetapentane citrate] | > 1000 nM
6 | COc1ccc2c(c1)[C@]13CCCC[C@@H]1[C@H](C2)N(C)CC3 [Dextromethorphan] | > 1000 nM
